Assay results published in the RNAGym collection of RNA variant scans (doi:10.7554/elife.90254).
Read counts are not given, so values of variants with three or more changes are uncertain.

B1: LINE1-mini (parent)
chain: GGCAGAGCUCAACACAGCGUGGCAAAGUGGCUGUGGCUAGACUGCC

Variants of: B1
Assay: self-cleavage, relative activity (ratio to wild type); higher = more cleavage; in vitro, sequencing; the parent is a self-cleaving ribozyme

Variant | self-cleavage
GCCAUAGCUCAACACAGCGUUGUAAAGUGGCUGUGGCUAGACCGCC [G2C G5U G21U C23U U43C] | 0.02
GGCAAAGCUCAACACAGAGUGGCAAAGUGGCUGUGGCAAGACUGCC [G5A C18A U38A] | 0.11
GAGAGAGCUCAACACGGCGUGGCAAAGUGGCUGUGGCUAGACUGCA [G2A C3G A16G C46A] | 0.02
GGCAGAGCUCAACACAGCGUGGCAAAGUGGCUGUUUCUAGACUGCA [G35U G36U C46A] | 0.08
GGCAGAGAUCAACACUGCGUGGCAAAGUUGCUGUGGCUAGACUGCC [C8A A16U G29U] | 0.16
GGCAGAGCUCAACACACCGUGGCAGCGUGGCUGUGGCUAGACUGCC [G17C A25G A26C] | 0.4
GGCAGAGCUCAACACAGCGUGGCAAAUUGACUAUGGCUAGGCUGCC [G27U G30A G33A A41G] | 0.07
GGCAGAGCUCAACACAGAGUGGCAAAAUGGCUGUGGCUACUCUUCC [C18A G27A G40C A41U G44U] | 0.04
GGCAUAGCCCAACACACCGAGGCAAAUUGGCUGUGGCUAGACUGCC [G5U U9C G17C U20A G27U] | 0.01
AGCAGAGCUCAACACAGCGUGGCACAGUGGCUGUGGAUAGACUGCA [G1A A25C C37A C46A] | 0.13
GGCAGAGCUCAUCACAGCAUGGCAAAUUGGCUGUGGCUACCCUGCC [A12U G19A G27U G40C A41C] | 0.03
GGCAGAGCUUACCACAGCGUGGCAAAGCGGCUGUGGAUAGACUGCC [C10U A12C U28C C37A] | 0.01
GGCAGAGCUCUACACAGCGUGGCAAAGUGGCUGUUGUUAGACUGCC [A11U G35U C37U] | 0.05
GGCAGAGCACAGCACAACGUGGCAAAGCGGCUGUGGCUAGACUGCC [U9A A12G G17A U28C] | 0
GGCAGAGCGCAACACAGCGUGGCAGAGUGGUUGUGGCUAGACUGGC [U9G A25G C31U C45G] | 0.02
CGCCGUGCUCAAAACAGCGUGGCAACGUGGCUGUGGCUAGACGGCC [G1C A4C A6U C13A A26C U43G] | 0
GGCAGAGCUCACCACAGCGCGGCAGAGUGGCUGUGGCUAGACUGCC [A12C U20C A25G] | 0
GGCAGAGCUCAACACAGCGUGGCAGAAUGGAUGUGCCUAGAGUGCC [A25G G27A C31A G36C C42G] | 0.07
GGCGGAGCUCAACACAGCGUGUCAAAGAGGCUAAGUCUAGCCUGCC [A4G G22U U28A G33A U34A G36U A41C] | 0.09

Variant | self-cleavage
GGCAGAUCUCAACACAGCGCGGCAAAGUGGCUGUGGCUGGACUGCC [G7U U20C A39G] | 0.03
GGCAGAGCUCAACACAGCGUGGCAAUUUGGCUGUGGCGAGUCUGCC [A26U G27U U38G A41U] | 0.01
GGCAGAACUCAACACAGCGUUGCAAAGGGGCUGUGGCUAGACUGAC [G7A G21U U28G C45A] | 0.1
GGGAGAACUCAACACAGCGCGGCAAAGUUGCUGUGGGUAGACUGCC [C3G G7A U20C G29U C37G] | 0.03
GGCUGAGCUAAAUACAGCGUGGCAAAGUGGCUGUGGCUAGACUGCC [A4U C10A C13U] | 0.1
GGCAGAGCUCAACACUGCGUGGUAAAAUGGCUGUGGCUAGAUUGCC [A16U C23U G27A C42U] | 0.34
GACGGAGCUCAACACAGCGUGGGAAAGUGGCUGCGGCUAGACUGCU [G2A A4G C23G U34C C46U] | 0.24
GGCAGAGCUCAACAAAGCGUGGCAGAGUGGCUGUGGCUAGACUGGA [C15A A25G C45G C46A] | 0.02
GGCAAACCUCAACACAGCGUGGCAAAGUGGCUGUGACUGGACUGCC [G5A G7C G36A A39G] | 0.06
GGCAGAGUUCAACACAGCGUGGCAAAGUGACUGUGGCUAGAUUGCC [C8U G30A C42U] | 0.18
GGCAGAGGUCAACACAGCGUGGCAAUGUGGCUGUGGUAAGACUGCC [C8G A26U C37U U38A] | 0.07
GGCAGAGCUCAACACAGCGGGGCAAAGUGGCUGUUGCUAUACAGCC [U20G G35U G40U U43A] | 0
GGCAGAGCUCAACUCAGCGUGGCAAAGUUGCAGUGGCUAUACUGCC [A14U G29U U32A G40U] | 0.01
GGCAGAGCUCAACACAGCGUGGCAAAGUGGCUGUCGCUAGACUUCA [G35C G44U C46A] | 0.04
GGCCGAGCUCAACACAGCGUGGCAAAGCGGCUAUAGCUAGACUGCC [A4C U28C G33A G35A] | 0.01
GGCAGAGCUCAACGCAGCGUGGCAAAGUGACUGUGGCUAGACUGGC [A14G G30A C45G] | 0.23
GGCAGAGCUCAACACAGCGUGGCAAAGUGUAUGUGGCUAGAGUGCC [G30U C31A C42G] | 0.04
GGCAGAGCUCAACACUGCGUGACCAAGUGGCUGAGGCUAGACUGCC [A16U G22A A24C U34A] | 0.02
GGCCGAGCUCAACACGGCCUGGCAAAGUGUCUGUGGCUAGACUGCC [A4C A16G G19C G30U] | 0.04

Variant | self-cleavage
UGCAGAGCUCAACACAGCGUGGCAAUGUGGCUGUGGCUAGUCUGCC [G1U A26U A41U] | 0.37
GGCAGAGCUCAACACAGCGUGGCAAAGUUGGGGUGGCUAGACUGCC [G29U C31G U32G] | 0.02
GGCAGAGCUCAACACAGCGUGGCGAAGUGGCCGUGGCUAAACUGCC [A24G U32C G40A] | 0.02
GGCAAAGCUCAACACAGCGUGGCAAAGUGGCUAUGGCUAGACUGGC [G5A G33A C45G] | 0.09
GGCAGGGCUAGACACAGCGUGGCAAGGUGGCUGUGGCUAGACUGCC [A6G C10A A11G A26G] | 0.02
GGCAAAGCUCAACACAGCGUGGCAAAGUGGCUGUGGCAAGACCGCC [G5A U38A U43C] | 0.05
GGCGGAGCUCAACACAGCGUGGCAAAUUGGCUGUGGCUAAACUGCC [A4G G27U G40A] | 0.25
GGCAGAGCUCAACACAGCGUGCCAAAGUGGUUGGGGCUAGACUGCC [G22C C31U U34G] | 0.01
GGCAAAGCUCAAAACAGCGUGGCAAAGUGGCUGUGGCUAUACUGCC [G5A C13A G40U] | 0.05
GGGAGAGCUCAACACAGCGUGGCAAAGUGGCUGUCGCGGGAAUUCC [C3G G35C U38G A39G C42A G44U] | 0.02
GGCAGAACGCAACACUGGGUGGCAAAGUGACUGUGGCUAGACUGCC [G7A U9G A16U C18G G30A] | 0.08
GGCAGAGGUCAACACAGCGUGGCAAAUUGGCUGUGACUAGACUGCC [C8G G27U G36A] | 0.07
GGCAGAGCUCAACACAGCGUGGCAAAGGGGCUGUGGCAAGCCUGCC [U28G U38A A41C] | 0
GUUAGAACUCAACACAGCGUGGCAAAGGGGCUGUGGCUAGACUGCC [G2U C3U G7A U28G] | 0.09
GGCCUAGCACAACACUGCGUGGCAAAGUGGCUGUGUCUAGACUGCC [A4C G5U U9A A16U G36U] | 0.03
GCCAGAGCUCAACACACCGUGGCAAAGUGUCUGUGGCUAGACUGCC [G2C G17C G30U] | 0.09
GACAGAGCUCAAAAGAGCGUGUCAACGUGGCUGUGGCUAGACUGCC [G2A C13A C15G G22U A26C] | 0.05
GGCAGUGAUCAACACAGCGUGGCAUUGUGGCUUUGCCUAGACGGCC [A6U C8A A25U A26U G33U G36C U43G] | 0
